About 9,900 (2.8%) of roughly 350,000 compounds were called active. The inconclusive results got no clear call from the source; some entries with a clear call stand among them for comparison. The call rests on the fitted dose curve; in most records, active means well fitted activation curve with a large enough effect; inconclusive means small, poorly fitted or top-dose-only effect; inactive means no such curve, though single readings can be large or run the other way. Potencies of inconclusive entries are left out as doubtful fits.
Experiment: A quantitative high throughput screen for small molecules that induce DNA re-replication in MCF 10a normal breast cells. Further: nearly all actives have a fitted effect of over 50% in size. On activity, positive = re-replication: % of control where 0% means no effect.
Conditions: MCF 10A DNA re-replication, Hoechst nuclear intensity, 48 h; activity, positive = re-replication: at 46.1 µM (top of the series)
Potency means the concentration at half of the fitted maximal effect; tags describe the fitted curve by direction and shape.

SMILES	activity, positive = re-replication	Potency
COC(=O)c1cc(S(=O)(=O)N2CCOCC2)c(Cl)cc1N1CCOCC1	inactive: -179% [at 0.0737 µM]	–
Cc1ccc(-c2csc(N3CCN(c4ccc5nc(-c6ccncc6)n(CCN6CCCCC6)c5c4)CC3)n2)cc1	–	inconclusive [activator, partial curve, poor fit]
COc1ccc(CCNC(=O)/C=C\c2ccccc2)cc1OC	inactive: 4.77%	–
Cc1cc2oc(=O)c(CC(=O)NCCCO)c(C)c2c2occ(C(C)(C)C)c12	inactive: 20.4%	–
CC/C=C\C/C=C\C/C=C\C/C=C\C/C=C\C/C=C\CCC(=O)O	–	inconclusive [activator, single point]
CCc1nc2ccccc2c(C(=O)OCc2nc3ccccc3c(=O)[nH]2)c1C	–	active: 20.6 µM
CCCCC12CN3CCN(CC(C3)/C1=N\NC(=O)c1ccccc1N)C2	–	inconclusive [activator, partial curve, poor fit]
CNS(=O)(=O)c1ccc(Cl)nc1	–	inconclusive [activator, partial curve, poor fit]
CCc1nc(SCC(=O)c2ccc(Cl)s2)c2oc3ccccc3c2n1	–	inconclusive [activator, partial curve]
Cc1cc(C)n(CC(=O)N2c3ccccc3Sc3ccccc32)n1	inactive: -2.44%	–
COc1cccc(N2CC(NS(=O)(=O)c3ccc(Cl)cc3)CC2=O)c1 (centres undefined)	–	inconclusive [activator, single point]
COc1ccccc1N(CC(=O)NCCSCc1ccccc1)S(C)(=O)=O	inactive: 3.05%	–
COc1ccc(/C=C2\CC/C(=C\c3ccc(OC)c(OC)c3)C2=O)cc1OC	–	inconclusive [activator, full curve]
CSc1sccc1/C=C(/C#N)C(=O)c1ccco1	–	inconclusive [activator, single point]
COC(=O)c1ccccc1NC(=O)c1ccc2c(c1)OCCCO2	–	inconclusive [activator, partial curve, poor fit]
O=C(N/N=C/c1ccccc1OC(=O)N1CCOCC1)c1cccs1	inactive: 3.59%	–
Cc1ccc(NC(=O)Cn2nc(C(=O)O)c3ccccc3c2=O)cc1S(=O)(=O)N1CCCCC1	inactive: -2.59%	–
CC(C)=CCCC1(C)C=Cc2c(ccc3c2[nH]c2cc(O)c(C)cc23)O1 (centres undefined)	–	inconclusive [activator, partial curve, poor fit]
O=C(CN1CCN(C(=O)c2ccc(-c3nc4ccccc4s3)o2)CC1)Nc1ccccc1Cl	–	inconclusive [activator, single point]

Source: PubChem BioAssay AID624296 (National Center for Advancing Translational Sciences (NCATS), 2012)
